# Measured values from ChEMBL document CHEMBL4888484, “Replenishing the malaria drug discovery pipeline: Screening and hit evaluation of the MMV Hit Generation Library 1 (HGL1) against asexual blood stage Plasmodium falciparum ,using a nano luciferase reporter read-out” (2022).
# The campaign covered roughly 150,000 compounds. About 540 (0.36%) showed an effect of 50% or more. This is one part of the list.
# Tested on: Plasmodium falciparum
# Assay: Primary screen in NF54 nanoGlo assay, in single point, at 2uM, 72h; a lower Z score goes with more inhibition
# Format: functional, Erythrocyte
# Details: timepoint 72 hour
Structure (SMILES),% Inhibition,Z score
O=C1NCC(C2CCOC2)C(=O)N1Cc1cccc(Cl)c1F (stereo not drawn),-3%,0.55
Cc1noc(C)c1S(=O)(=O)NCC(=O)N1CCCCCCNC(=O)C[C@H]1c1ccccc1,-12%,1.73
Cc1n[nH]nc1C(=O)N[C@@H](C)c1cccnc1,-9%,1.34
Cc1ccc(S(=O)(=O)Cc2cc(=O)n(C)c(=O)n2C)c(C)c1,-11%,2.1
Cc1cccc(Cl)c1OCCCNCc1ccco1,-1%,0.09
CNC(=O)[C@@H](NC(=O)Cc1cccc(Cl)c1Cl)C(C)C,-14%,1.24
O=S(=O)(Nc1nnc(C2CC2)s1)c1cncc(Cl)c1,10%,-1.15
C[C@H]1CCCCN1S(=O)(=O)NC1CCCCCC1,-14%,1.78
CCCCOc1ccccc1NC(=O)NCC1CS(=O)(=O)C1,-4%,0.38
Cc1oc(-c2ccccc2NS(C)(=O)=O)nc1CN(C)C[C@@H](C)Cc1ccc2c(c1)OCO2,-3%,0.48
CC1OCCN(C(=O)c2ccc3c(c2)CCO3)C1C (stereo not drawn),-6%,0.78
Clc1cnc(NCCNCc2ccncc2)c(Cl)c1,-9%,1.13
O=C(CNC(=O)C1CCCCC1)NCCCO,-14%,1.93
O=C(NCCc1nc2ccccc2[nH]1)[C@@H]1CC=CCC1,-14%,1.22
N#Cc1cccc(NC(=O)N2C[C@@H]3CC[C@H]2CN(Cc2ccncc2)C3)c1,-15%,3.09
CN1CCCn2nc([C@H]3CCCN(C(=O)Cn4ccnc4)C3)cc2C1=O,-11%,2.1
Cc1ccc2[nH]cc(-c3ncccc3NC(=O)C(C)C)c2c1,2%,-0.27
Cc1ccc(C(=O)C2CCN(C(=O)Cn3c(C)cc4ccccc43)CC2)c(C)c1,-2%,0.2
N=C(Cc1ccc(Cl)cc1Cl)NOC(=O)Cc1ccccc1,6%,-0.79
COc1ccc(-c2cc3n(n2)C[C@@](C)(C(=O)NCc2ccccc2OC)N(c2cccc(OC)c2)C3=O)cc1,51%,-8.04
N#Cc1nccnc1O[C@H]1CC[C@H](NC(=O)c2ccc(F)cc2)CC1,-9%,1.02

Structure (SMILES),% Inhibition,Z score
Cc1ccc(CNC(=O)[C@]2(C)Cn3nc(-c4cccs4)cc3C(=O)N2c2cc(Cl)ccc2C)cc1,-9%,1.4
COc1ccc(F)c(F)c1CN1CCC(N2CCc3ccccc3C2)CC1,-6%,0.59
Cc1ccc(-n2nc(N3CCCN(C(=O)CC4CCCC4)CC3)ccc2=O)cc1C,9%,-0.99
CCC(=O)N1CC[C@H](c2nc(Cc3cc(C)cc(C)c3)no2)C1,-5%,0.81
Cc1nc(C2(C)CCN(S(=O)(=O)c3ccc(C(C)(C)C)cc3)CC2)no1,-7%,0.88
Cn1c(=O)n([C@H]2CCN(C(=O)c3cccs3)C2)c2ncccc21,-10%,1.3
COCCN(CC1CN(Cc2ccc(OC)cc2)CC1c1cccc(OC)c1)C(=O)C(C)C (stereo not drawn),2%,-0.2
O=C(CCc1ccccc1)N1CCC2(CC1)C[C@@H](CCOCC1CC1)CCO2,-7%,1.27
COc1ccc(NCc2ccc(F)cn2)cc1N1CCOC1=O,-11%,1.5
Cc1cnc(CNC(=O)[C@H]2CCc3ccccc3C2)s1,-8%,1.04
CCCCOc1cccc([C@@H]2c3c(-c4ccccc4O)n[nH]c3C(=O)N2Cc2ccc3c(c2)OCO3)c1,-5%,0.67
CCOC(=O)C(C#N)C(c1cccnc1)c1c(C)n[nH]c1O (stereo not drawn),6%,-0.8
O=C(NCCc1nnc2n1CCCC2)C1=CCCCCC1,-11%,1.46
CN1CCC(n2nc(-c3ccco3)nc2CN(C)Cc2ccccn2)CC1,-19%,2.47
COC1(CC(=O)Nc2cccc(CN)c2)CCC1,-8%,1.46
Cc1ccc2c(ccn2CC(=O)Nc2cnn(C)c2)c1,0%,0.06
Cc1ncc(C(=O)Nc2ncnn2C(C)(C)C)c(C)n1,-7%,1.16
CCN1C[C@@H](c2ccccc2)CC2(CCN(S(=O)(=O)N3CCCC3)CC2)C1,-16%,1.51
COc1ncc(CN[C@H]2CCC23CCOCC3)cc1Cl,-2%,0.31
CC(C(=O)N1CCS(=O)(=O)C(C)C1)c1cn(C)c2ccccc12 (stereo not drawn),-3%,0.45
COc1cc(=O)[nH]cc1C(=O)N(Cc1ccccc1)C1CCCCC1,-7%,0.91

Structure (SMILES),% Inhibition,Z score
C[C@@](CO)(Nc1ncc(Br)cn1)C1CC1,-15%,2.21
CCC1Oc2ccc(NC(=O)C(CC)c3ccccc3)cc2CN(Cc2ccc(F)cc2)C1=O (stereo not drawn),-16%,1.52
O=C(Nc1cccc(Cl)c1Br)N[C@@H]1C[C@H]2CC[C@@H]1O2,-9%,1.25
Cn1c(Cn2cccn2)nnc1C1CCN(c2cc(N)nc(N)n2)CC1,-9%,0.86
O=C1CN(CCNC(=O)c2ccoc2C(F)(F)F)CCN1,-1%,0.13
O=C(c1nccnc1-c1nc2ccccc2s1)N1CCCC1,-2%,0.4
Cc1noc(C2CC2)c1N[C@@H](C)CCc1ccccc1F,1%,-0.12
Cc1nn(CCNS(=O)(=O)c2cccs2)c(C)c1-c1ccsc1,24%,-3.06
Cc1ccc(CNC(=O)C2CCN(c3c(-n4c(C)ccc4C)c(C)nn3-c3ccccc3)CC2)o1,-5%,0.74
CCCc1c(NC(=O)NC[C@H]2CCC3(CCCC3)O2)cnn1-c1cc(C)ccn1,-12%,1.31
COc1nc(CNS(=O)(=O)c2c(C)n[nH]c2C)nc(N(C)C)n1,-13%,1.7
O=C(c1c[nH]c(-c2ccccc2)n1)N1CCC(n2cc(CO)nn2)CC1,-8%,1.37
O=C(O)[C@@H]1CCN(Cc2nnsc2Cl)c2ccc(Br)cc21,4%,-0.66
Cc1nnc([C@H](C)Nc2ccc(F)c(NC(=O)c3ccsc3)c2)o1,-4%,0.6
COc1cc2c(cc1OC)CN(C(=O)OC(C)(C)C)[C@H](C(=O)NC[C@H]1CC[C@H](C(=O)O)CC1)C2,-17%,1.78
CCNS(=O)(=O)c1cc(C)ccc1C,36%,-0.73
C[C@@H]1CN(C(=O)c2ccc(F)cc2F)CC[C@@]1(O)C1CCOCC1,-6%,0.9
CCc1cccc(NC(=O)CNC(=O)N2CC(=O)Nc3ccccc32)c1,-4%,0.53
Cn1ncnc1NC(=O)CCCc1ccccc1,-5%,0.75
Cc1ccccc1OCC(=O)NCc1cc(-c2ccccn2)nn1C,-20%,2.9
O=C(CC1(CC(=O)N2CCCO2)CCCC1)N1CCCO1,-13%,1.62

Structure (SMILES),% Inhibition,Z score
CCc1cnc(C)nc1-c1cccc(-c2ccn(C[C@@H](O)CC)n2)c1,-6%,0.9
CCCn1c(C)cnc1C1CN(C(=O)NC2CCCCC2)C1,-5%,0.63
Cc1csc([C@H](C)NC(=O)c2cccn2C(C)C)n1,-11%,1.46
Cc1ccc(OCC2CCN(S(=O)(=O)c3c(C)n[nH]c3C)CC2)nn1,-15%,1.7
CC(C)C(C)(C)CNC(=O)N[C@@H](C)Cn1ncc2ccccc2c1=O,-13%,1.89
Cc1ccc(N2CCC([C@]3(c4cccnc4)NC(=O)NC3=O)CC2)nn1,3%,-0.72
CC(C)C(NC(=O)c1ccc(-c2ccc3c(c2)OCCO3)s1)C(C)C,-12%,1.13
Cc1cnc(N)nc1NCC1(Cn2ccnc2C)CC1,0%,0.04
O=C(C1CCN(S(=O)(=O)c2ccc(Br)cc2)CC1)N1CCN(C(c2ccccc2)c2ccccc2)CC1,0%,0
COCC[C@H]1COCCN1C(=O)c1cccc(Nc2nccc(C)n2)c1,-12%,1.6
C[C@@H](C(=O)NCc1csc(N2CCCC2)n1)N1CCCC1=O,-9%,1.79
Cn1cc(C(NC(=O)c2nc3cccnc3[nH]2)[C@H]2C[C@H](O)C2)cn1 (stereo partly drawn),-8%,1.56
CC(C)c1nc(CN2CCC[C@@H]2C(=O)O)cs1,-4%,0.48
Cc1cnc(C)c(N2C[C@@H]3OC(=O)N(CCc4ccccn4)[C@@H]3C2)n1,-17%,1.49
Cc1noc(C)c1N(C)CC(=O)N1CCOC2CCCCC21 (stereo not drawn),-7%,0.66
O=C(C1=CCCC1)N1C[C@@H]2CCS(=O)(=O)[C@@H]2C1,11%,-1.39
CC[C@H]1CCCCCN1C(=O)NCCc1nnc(C)s1,-9%,1.2
O=C(N[C@@H]1CN(C(=O)c2ccoc2)CC[C@@H]1CO)c1ccccc1,-15%,2.06
COc1cn(C)c(C(=O)N2CCN(c3ccc(Cl)cc3)CC2)cc1=O,-1%,0.1
C[C@@H](CN1CCCCC1)NCc1ccc2[nH]cnc2c1,5%,-0.69
O=C1CCCc2nn(-c3ccccc3)c(-c3ccccc3O)c21,-20%,1.85
